For one compound, growth results are on record in PubChem BioAssay (NCI).

This assay concerns LOX IMVI melanoma. Nature of the assay: NCI-60 one-dose screen, 48 h (100 = growth as untreated, 0 = no growth, -100 = all killed).

Where a structure was tested more than once in an assay, its records may differ in their call.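 In brief: 96-well plates, 48 h treatment, single concentration, percent growth endpoint.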 For part of its entries the source gives two or more results. This is not the full list of results. An entry can have further records. Rule for the calls: active = growth percent below 10; inactive = the rest. This drug was run again and again over the years, at its own concentration, as given; one value stands for one run. Additions like (4×) stand for listed records that agree.

Take `COc1cccc2c1C(=O)c1c(O)c3c(c(O)c1C2=O)C[C@@](O)(C(=O)CO)C[C@@H]3OC1CC(N)C(O)C(C)O1` (stereo not given in full): the growth entry reads like this: (0.25 µM, runs of 2018) “inactive: 20.8, 18 (3×), 19.7 (2×), 20, 24.3, 17.9, 13.3 (2×), 18.3, 20.6, 25, 28.9, 22.1, 27, 18.1, 11.5, 12, 16.2 (2×), 26.7, 25.7, 20.9, 24 (2×), 15.7, 21.1, 28.3, 17.8, 26.1, 22.8, 34.6, 32, 16.6, 27.1, 13.9, 13.4, 27.8, 22.5, 20.4, 18.9, 25.2, 31.2, 36.1% and active: 5.95%”; (0.25 µM, runs of 2019) “active: -0.554, -0.752, 8.37, 4.48, 6.24, 0.235, 8.51, 9.68, 3.18, 6.06% and inactive: 13.2, 10.1, 13.9, 22, 20.6, 14.6, 22.3 (2×), 13.3, 14.1, 14.7, 10.5 (2×), 12.2, 11, 11.1, 13.8, 10.4, 19, 18.5, 10.6, 20.4, 21.1, 19.2, 16, 12.4, 16.8, 26.9, 16.2, 30, 18.1, 10.3, 16.4, 19.3, 20%”; (0.25 µM, runs of 2020) “active: 9.29, 9.46, 5.3, 9.12, 8.46% and inactive: 19.4, 15, 12.6 (2×), 14.6, 12.9, 10.8, 10.6, 19.9, 12, 14.4, 22.6, 18.8, 14.7, 23.1, 26.9, 20%”; (0.25 µM, runs of 2021) “inactive: 10.9, 22.4, 15.7, 16.5, 16.4, 13.3, 14.1 (2×), 12.7, 12, 12.5, 11.2, 10.2, 10.6, 11.5, 13.6, 12.3, 12.8% and active: 2.56, 2.85, 4.19, 2.25, -4.73, 9.67, 3.26, 6.69, 7.5, 4.57, 5.88, 9.24, 0.211, 0.344, 4.14, 8.48, 0.456, 4.91, 5.15, 3.33, 7.85, 1.08, -4.9, 8.76, 7.3, -26.4, -52, -5.61, 8%”; (0.25 µM, runs of 2022) “active: -61.6, -64.3, -66.4, -26.4, 9.99, -0.243, 9.48, 5.24, 9.91, 4.72, 0.283, 7.93, 2.59, 6.65% and inactive: 15, 16.2, 20.4, 15.7, 27.8, 25.9, 13, 34.2, 27.3, 52.6, 11.6%”; (25 µM, runs of 1991) “active: -56.1, -51.1, -50.2, -51.8, -66.9, -48.6, -33.2, -36.6, -20.8, -42.2, -20.5, -44.1, -72.9, -67.1, -76.6, -75.5, -77.3%”. The growth entry was “active: -55, -34.4, -67.6 (2×), -63.1, -64, -76.3, -49.4, -46.9, -77.5 (2×), -72.5, -29, -58.9, -33.3 (2×), -38.5, -62.6 (2×), -80.8, -48.3, -100, -43.7, -50.3, -83.4, -54.6, 3.94, -67.7, -32, 5.38, -85, -93.2, -67.4, -73.9, -77.8, -43.8, -76, -76.9, -58, -83 (2×), -67.8, -78.7, -42.7, -23.2, -4.64, -27.9, -4.81, -58.8 (2×), -76.8, -79.8, -55.1, -82.8, -78.6, -40.8, -69.4, -83.2, -30.7, -39.2, -46.4, -62.8, -62.9, -57.7, -38.3, -87.8, -70.8 (2×), -54.9, -82.7, -68.7, -73.4 (2×), -37.8, -80.7, -60.9, -69.9, -64.7, -59.1, -82.4, -67.2, -63.7, -76.7, -91, -69.8, -72.6, -31.5, -54.4, -73.1, -60.4, -80.1, -74.7, -89.1, -81.8, -85.6, -72.8, -64.3, -77.6, -86.5, -74.8, -52.2, -79.5, -54.2, -89.8, -86.9, -81.5, -61.5, -60.1, -59.7, -39.6, -49.3, -78.5, -68.8, -65.3, -75.3%” (25 µM, runs of 1992); “active: -66, -82.3, -50.8, -46.1, -75.3, -80.7, -41.5, -78, -72.7, -86.7, -63.1, -10.3, 1.17, -87.1, -82.2, -77, -56.4, -35.8, -68.6, -64.7, -35.7, -23.2, -92.8, -71.7, -71, -67.9, -77.8, -37.5, -22.5, -45.9, -78.1, -23.5, -51.5, -26, -53, -7.69, -82.4%” (25 µM, runs of 1993); “active: -41.4, -49.7, -34.5, -37.4, -78.1, -34.1, -72.7, -86.1, -70.4, -1.52, -38.8, -46.7, -21.3, -82.1, -51.1, -24, -48.3, -69.7, -69.3, -50.4, 4.55, -39, -77, -75.2, -80.9, -71.9, -100% and inactive: 77.2%, 11.4%, 91.2%” (25 µM, runs of 1994); “active: -58.2, -53.7, -48.2, -51.9, -86.7, -89.5, -67, -60.7, -56.9 (2×), -48.8, -72.3, -94.4, -80.9, -86.9, -73.4, -55.1, -27.1, -93.9, -49.9, -45.1, -13.5, -35.3, -13.1, -56.2, -42.1, -54.9, -65.6, -61.3, -18, -71.4, -32.6, -49.5, -17.3%” (25 µM, runs of 1995); “active: -38.5, -48.8, -15.2, -21.6, -73.9, -27.5, 1.66, -15.5, 2.17, 4.29, -4.79, -46.3, 6.07, -31, -35.9, -41.6, 2.47, -63.7, -44.1, -73.3, -52.5 (2×), -54.5, -65.2 (2×), -61.7 (2×), -44.8, -85.5, -61.1 (2×), -61.4, -38.8, -31.4, 0.573, -53.6, -42.7, -31.6, -41.2, -27, -47.5, -63.1, -48.9, 5.75, -64.7, -70, -42.4, 3.78, -68.5, -39.7, -48.2, -37% and inactive: 92.4%, 39.2%” (25 µM, runs of 1996); “active: -50, 1.34, -40.2, -55.7, 0.898, -49.2, -25.4, -18.8, -48.9, -34.3, -50.5, -19, -66.9, -52.5, -31.1, -20.1, -51.6, -42.7, -16.5, -23.4, -64.8, -78.4, -67.1, -32.6, -17.1, -48.3, -46.1, -2.75, -60.8, -66, -74.8% and inactive: 16.7%, 15.3%, 13.6%” (25 µM, runs of 1997). In addition, the growth entry runs as follows: (25 µM, runs of 1998) “active: -68.1, -12.2, -55.9, 2.75, -27.8, -39.5, -84.9, -56.2, -50.3, -50.7 (2×), -43.9, 0.618, -67.3, -68.6, -74.2, -80.4, -36.2, -2.85, -70.4, -27.9, -5.14% and inactive: 10.3%”; (25 µM, runs of 1999) “active: -100 (3×), -78.8, -24, -45.1, -31.6, -76.8, 0.276, -73.5, 2.84, -32.5, 2.66, -73.8, 0.562, -9.22, 0.05%”; (25 µM, runs of 2000) “active: -75.9%, -100%, -39.8%”.
